Measured values published in PubChem BioAssay AID1508624 (National Center for Advancing Translational Sciences (NCATS), 2021).
The whole screen tested about 48,000 compounds, of which about 120 (0.25%) were called active. Inconclusive results (about 4%) are left out. The call rests on the fitted dose curve; in most records, active means well fitted activation curve with a large enough effect; inconclusive means small, poorly fitted or top-dose-only effect, or another doubt; inactive means no such curve, though single readings can be large or run the other way. Some of the results follow.

Assay: Primary qHTS for Identification of Small Molecule Activators of Huntingtin-Antisense Promoter Activity; further: nearly all actives have a fitted effect of over 55% in size
Settings: HEK293 HTT-AS promoter firefly luciferase reporter, 24 h; series mostly up to 57.5 µM; activity change, positive = activation: at the top concentration
Method in brief: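 HEK293 Fluc reporter, 2,500 cells/well, 24 h pre-culture; cpds up to 57.5 uM final, 24 h 37 degrees C; Dual-Glo, 10 min RT; normalized vehicle = 0%, zero RLU = -100%.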

SMILES	activity change, positive = activation
COc1ccc(Cl)cc1Nc1cc(C)nc2nc(-c3ccccc3C)nn12	inactive: -1.58%
CN(C)c1ccc(C(CNC(=O)c2cccc(C(F)(F)F)c2)N2CCCC2)cc1 (stereo unspecified)	inactive: -22.6%
CCOc1ccc(NC(=O)C2CCN(S(=O)(=O)c3c(C)noc3/C=C/c3c(C)cc(C)cc3C)CC2)cc1	inactive: 10.6%
CCCCCCCC/C=C\CCCCCCCCN	inactive: -6.59%
CN(C)[C@@H](CCOc1cccc2ccccc12)c1ccccc1	inactive
CCCC(=O)Nc1cccc(-c2cn3cccnc3n2)c1	inactive: 35.1%
Cc1ccc(CNc2ncnc3c2c(-c2ccccc2)cn3-c2ccccc2)cc1	inactive: -14%
CCOC(=O)c1ccc(NS(=O)(=O)c2ccc3c(c2)OCCO3)cc1	inactive: -34.3%
O=C(Nc1ccc(Cl)c(C(F)(F)F)c1)c1ccc2c(c1)CCN2S(=O)(=O)c1ccccc1	inactive: -44.8%
COc1ccc(NC(=O)CN2C(=O)CSc3ccc(S(=O)(=O)N(C)C)cc32)cc1Cl	inactive: -17%
Cc1ccccc1Cn1nnc2c(=O)[nH]c(C3CCN(C(=O)c4ccccc4Cl)CC3)nc21	inactive: -16.4%
COc1ccc(NC(=O)C2CCN(C(=O)N3CCOc4ccccc43)CC2)cc1	inactive: -12.3%
Cc1ccc2occ(CC(=O)Nc3ccc(S(=O)(=O)N4CCCC(C)C4)cc3)c2c1 (stereo unspecified)	inactive: -18.9%
Cc1ccc(-n2ncc(C(=O)NCc3ccccn3)c2C2CCN(C(=O)OC(C)(C)C)CC2)c(C)c1	inactive: -15.6%
COc1ccc(CNC(=O)CCCn2c(=O)c3cccn3c3ccc(F)cc32)cc1OC	inactive: -5.39%
COc1ccc(-c2noc(N3CCC(C(=O)Nc4ccc(OC)c(OC)c4)CC3)n2)cc1	inactive: -70.9%
O=c1c2cc3c(cc2n(Cc2ccccc2)c(=O)n1Cc1nc(-c2ccccc2)no1)OCO3	inactive: -11.1%
COc1ccc(NC(=O)N2CCN(S(=O)(=O)c3ccc4c(ccn4C)c3)CC2)cc1OC	inactive: -2.47%
CCC1CN(C(=O)NCc2ccccc2)c2cc(C)ccc2O1 (stereo unspecified)	inactive: -17.8%
COCCCNC(=O)C(C)n1c2ccccc2c2cnn(C)c(=O)c21 (stereo unspecified)	inactive: -9.49%
Cc1ccc(NC(=O)Cn2c(=O)ccc3cc(S(=O)(=O)N4CCC(C)CC4)ccc32)c(C)c1	inactive: -37.9%

SMILES	activity change, positive = activation
CCOC(=O)c1cc2c(=O)n3ccccc3nc2n(C)c1=NC(=O)c1c(-c2ccccc2Cl)noc1C	inactive: 6.5%
COc1ccc(-n2cc(C(=O)Nc3cc(F)ccc3F)c3ccccc3c2=O)cc1	inactive: -22.7%
O=C(Nc1ccc(F)cc1F)c1ccc2c(c1)CCN2S(=O)(=O)c1ccc(Cl)cc1	inactive: -12%
CCOc1ccc(CNC(=O)Cn2ccc3cc(S(=O)(=O)N4CCCCCC4)ccc32)cc1	inactive: -23.5%
CCCCOC(=O)c1ccc(NC(=O)CC2NCCNC2=O)cc1 (stereo unspecified)	inactive: 3.22%
COCCCNC(=O)C1CCC(CNS(=O)(=O)c2ccc(OC)cc2)CC1 (stereo unspecified)	inactive: -6.83%
COc1cccc(CNC(=O)C2CCN(Cc3cc4ccccc4n3Cc3ccc(C)cc3)CC2)c1	inactive: -23.7%
COc1cc(-c2cc3n(C)c(C)c(CCC(=O)NCc4ccccc4)c(=O)n3n2)cc(OC)c1OC	inactive: -2.45%
CCCC(CCC)C(=O)O	inactive
COc1ccc(OC)c(CCNC(=O)Cn2ccc3cc(S(=O)(=O)N4CCCCC4)ccc32)c1	inactive: -31.4%
CCN(CC)c1ccc(NC(=O)c2sc3ccccc3c2Cl)cc1	inactive: 22%
CC(C)[N+](C)(C)CC(O)COc1cccc2ccccc12 (stereo unspecified)	inactive: -12.9%
COc1ccc(OC)c(-c2noc(N3CCN(c4cc(C)ccc4C)CC3)n2)c1	inactive: -39.7%
CCCn1c(=N)c(C(=O)NCc2cccnc2)cc2c(=O)n3ccccc3nc21	inactive: -2.5%
COc1ccc(NC(=O)C(Cc2ccccc2)NS(=O)(=O)c2ccc3c(c2)CCN3C(C)=O)cc1 (stereo unspecified)	inactive: 17.1%
CCOC(=O)c1cc(OC(=O)c2ccc(OC)cc2)n(-c2ccccc2)n1	inactive: -8.7%
Cc1ccc(C)c(CNC(=O)c2ccc3c(c2)nc2n3CCC(C)C2)c1 (stereo unspecified)	inactive: 19.1%
COc1ccccc1-c1cc2nc(C)c(CCC(=O)NCCc3ccc(SC)cc3)c(C)n2n1	inactive: -74%
Cc1ccc(N(C)S(=O)(=O)c2nnc(NC(=O)CC(C)C)s2)cc1	inactive: -5.69%
CCOC(=O)Cc1ccc(NC(=O)Nc2cc3c(cc2N2CCCCC2)n(C)c(=O)n3C)cc1	inactive: -19.4%
CN(C)CCCC1(c2ccc(F)cc2)OCc2cc(C#N)ccc21 (stereo unspecified)	inactive: -49%

SMILES	activity change, positive = activation
Cn1nc(C(=O)NCc2ccc(F)cc2)c2c1-c1ccccc1SC2	inactive: 2.48%
CC1CCN(C(=O)CN2c3ccc(C(C)C)cc3-c3ccccc3S2(=O)=O)CC1	inactive: 17.4%
Cc1cc(-c2ccccc2)n2nc(-c3cccc(Br)c3)cc2n1	inactive: 3.32%
COc1ccc(/C(C)=C/C(=O)O)c(OC)c1	inactive: 3.26%
Cc1ccc(-c2c(C(=O)NCc3ccc(F)cc3)oc(=O)c3ccccc23)cc1	inactive: -16.9%
CC(=O)c1cccc(NC(=O)c2oc(=O)c3ccccc3c2-c2ccccc2)c1	inactive: -3.58%
Cc1ccccc1NC(=O)Cn1c(=O)n(Cc2ccc3c(c2)OCO3)c(=O)c2ccc(C(=O)NC3CCCCC3)cc21	inactive: -20.7%
CC(C)CN(CCNC(=O)c1cn(C)c2ccc(S(=O)(=O)N3CCOCC3)cc2c1=O)CC(C)C	inactive: -1.17%
CSCCC(NS(=O)(=O)c1ccc2c(c1)oc(=O)n2C)C(=O)NCc1ccccc1 (stereo unspecified)	inactive: -2.97%
Cc1ccc2cccc(NC(=O)c3ccc(-c4cccc(Cl)c4Cl)o3)c2n1	inactive: -1.97%
COc1ccc(CCCc2nnc(SCC(=O)Nc3ccc(F)cc3)o2)cc1C	inactive: 9.22% [at 11.5 µM, percent change from vehicle, -100% = no light]
COc1ccc(CCNS(=O)(=O)c2ccc(N3CCCCS3(=O)=O)cc2)cc1OC	inactive: -14.6%
Cc1nc2c(-c3ccccc3)c(C)nn2c(C)c1CCC(=O)NCc1ccc(Cl)cc1	inactive: -7.14%
Cc1ccc(CNC(=O)CCCN2C(=O)CCn3nc(-c4cn(C)c5ccccc45)cc32)cc1	inactive: -26.2%
O=C(Cn1cnc2onc(-c3ccc(F)cc3)c2c1=O)Nc1cccc(C(F)(F)F)c1	inactive: -50.1%
CS(=O)(=O)N(CC(=O)NCCSCc1ccccc1)c1cc(C(F)(F)F)ccc1Cl	inactive: -15.1%
COc1ccc(NC(=O)CC2C(=O)N(c3ccccc3)C(=O)N2C2CCCCC2)cc1 (stereo unspecified)	inactive: -12.7%
COc1ccccc1CNC(=O)c1cc2cccc3c2n1CC(C)S3 (stereo unspecified)	inactive: -36.7%
CCOC(=O)c1nnn(CC(=O)Nc2cc(C)cc(C)c2)c1C(=O)OCC	inactive: 9.86%
